One block for each binder: values may come before it.
Tests used:
[1] = molecular target: T1, human CD47 (cluster of differentiation 47), on cells (human, UniProt Q08722); assay: FACS on Raji cells
T1 construct: whole, on cells; also called IAP; integrin-associated protein

[2] = molecular target: T1, human CD47 (cluster of differentiation …); assay: FACS on Raji cells, acidic and physiological pH
[3] = molecular target: T1, human CD47 (cluster of differentiation …); assay: FACS on Raji cells, pH 7.3 and pH 6.0
[4] = molecular target: T1, human CD47 (cluster of differentiation …); assay: cell-based or functional assay
[5] = molecular target: T1, human CD47 (cluster of differentiation …); assay: FACS on primary human T cells
[6] = molecular target: T1, human CD47 (cluster of differentiation …); assay: FACS on primary human platelets, pH 7.3
Method: Human primary platelets were seeded into 96-well plate at 1×10⁶/well and incubated with Fc blocking antibody at room temperature. […] After washing the platelets with 1×PBS+2% FBS at pH 7.3, FITC-labelled anti-human IgG Fc secondary antibody (Abcam, CAT #ab6854) were added and incubated at 4° C. for 30 minutes at pH 7.3. After washing, the platelets were then analyzed by FACS in 1×PBS+2% FBS at pH 7.3.

[7] = molecular target: T2, His-tagged CD47 extracellular domain (ECD) protein (Abclonal, CAT #RP01306) (human, UniProt Q08722 fragment); assay: ELISA, coated Fc fusion, His-tagged CD47 ECD in solution (monovalent), pH 7.2
T2 construct: extracellular domain; Bought; also called recombinant human CD47 protein with His-tag; His-tag human CD47 ECD protein

[8] = molecular target: T2, His-tagged CD47 extracellular domain …; assay: ELISA against immobilized human CD47, pH 6.0 and pH 7.3

B1: SIN-318, SIRPγ WT IgV-IgG1 Fc (Fc fusion)
chain: EEELQMIQPEKLLLVTVGKTATLHCTVTSLLPVGPVLWFRGVGPGRELIYNQKEGHFPRVTTVSDLTKRNNMDFSIRISSITPADVGTYYCVKFRKGSPENVEFKSGPGTEMALGAKPS[human IgG1 Fc not printed]
binding result [1]: binds

B2: SIN-323, SIRPγ K53H + L37Q + N101D IgV-IgG1 Fc (Fc fusion)
chain: EEELQMIQPEKLLLVTVGKTATLHCTVTSLLPVGPVQWFRGVGPGRELIYNQHEGHFPRVTTVSDLTKRNNMDFSIRISSITPADVGTYYCVKFRKGSPEDVEFKSGPGTEMALGAKPS[human IgG1 Fc not printed]
binding result [2]: binds

B3: SIN-322, SIRPγ Q52H IgV-IgG1 Fc (Fc fusion)
chain: EEELQMIQPEKLLLVTVGKTATLHCTVTSLLPVGPVLWFRGVGPGRELIYNHKEGHFPRVTTVSDLTKRNNMDFSIRISSITPADVGTYYCVKFRKGSPENVEFKSGPGTEMALGAKPS[human IgG1 Fc not printed]
binding result [3]: binds

B4: SIN-361, SIRPγ K53H + N101D IgV-IgG1 Fc (Fc fusion)
chain: EEELQMIQPEKLLLVTVGKTATLHCTVTSLLPVGPVLWFRGVGPGRELIYNQHEGHFPRVTTVSDLTKRNNMDFSIRISSITPADVGTYYCVKFRKGSPEDVEFKSGPGTEMALGAKPS[human IgG1 Fc not printed]
binding result [2]: binds

B5: SIN-324, SIRPγ R69H + L37Q + N101D IgV-IgG1 Fc (Fc fusion)
chain: EEELQMIQPEKLLLVTVGKTATLHCTVTSLLPVGPVQWFRGVGPGRELIYNQKEGHFPRVTTVSDLTKHNNMDFSIRISSITPADVGTYYCVKFRKGSPEDVEFKSGPGTEMALGAKPS[human IgG1 Fc not printed]
binding result [1]: binds

B6: SIN-321, SIRPγ K68H IgV-IgG1 Fc (Fc fusion)
chain: EEELQMIQPEKLLLVTVGKTATLHCTVTSLLPVGPVLWFRGVGPGRELIYNQKEGHFPRVTTVSDLTHRNNMDFSIRISSITPADVGTYYCVKFRKGSPENVEFKSGPGTEMALGAKPS[human IgG1 Fc not printed]
binding result [3]: binds

B7: SIN-319, SIRPγ K53H IgV-IgG1 Fc (Fc fusion)
chain: EEELQMIQPEKLLLVTVGKTATLHCTVTSLLPVGPVLWFRGVGPGRELIYNQHEGHFPRVTTVSDLTKRNNMDFSIRISSITPADVGTYYCVKFRKGSPENVEFKSGPGTEMALGAKPS[human IgG1 Fc not printed]
binding result [3]: binds

B8: SIN-320, SIRPγ R69H IgV-IgG1 Fc (Fc fusion)
chain: EEELQMIQPEKLLLVTVGKTATLHCTVTSLLPVGPVLWFRGVGPGRELIYNQKEGHFPRVTTVSDLTKHNNMDFSIRISSITPADVGTYYCVKFRKGSPENVEFKSGPGTEMALGAKPS[human IgG1 Fc not printed]
binding result [3]: binds

B9: SIN-300, wild type SIRPαV2 IgV-IgG1 Fc fusion protein (Fc fusion)
chain: not shown
notes: homodimer, bivalent (format FV-2); also called SIRPαV2 WT IgV-IgG1 Fc
ADCC activity, Jurkat-NFAT-Luc2-CD16 V158 reporter assay against Raji cells, pH 6.0 [4]: ~0.333 fold of the peak at pH 7.2 | peak binding MFI relative to that of the Hu5F9 analog [5]: < 0.5 fold of Hu5F9 analog | peak binding MFI relative to that of the Hu5F9 analog [6]: < 0.333 fold of Hu5F9 analog

Second part, the binder after the results:

binding result [7]: binds
B10: SIN-304, SIRPαV2 K68H IgV-IgG1 Fc (Fc fusion)
chain: not shown
notes: format FV-2

binding result [7]: binds
B11: SIN-303, SIRPαV2 Q52H IgV-IgG1 Fc (Fc fusion)
chain: not shown
notes: format FV-2

binding result [8]: binds
B12: SIN-368, SIRPαV2 IgV K53H-K53H-IgG1 Fc (Fc fusion)
chain: not shown
notes: four IgV monomers in all; also called tetravalent SIRPαV2 IgV K53H-IgG1 Fc fusion protein

binding result [1]: binds
B13: SIN-325, SIRPβ2 H101D IgV-IgG1 Fc (Fc fusion)
chain: EEELQVIQPDKSISVAAGESATLHCTVTSLIPVGPIQWFRGAGPGRELIYNQKEGHFPRVTTVSDLTKRNNMDFSIRISNITPADAGTYYCVKFRKGSPDDVEFKSGAGTELSVRAKPS[human IgG1 Fc not printed]
notes: also called SIPRβ2 H101D IgV-IgG1 Fc

binding result [3]: binds
B14: SIN-329, SIRPβ2 Q52H + H101D IgV-IgG1 Fc (Fc fusion)
chain: EEELQVIQPDKSISVAAGESATLHCTVTSLIPVGPIQWFRGAGPGRELIYNHKEGHFPRVTTVSDLTKRNNMDFSIRISNITPADAGTYYCVKFRKGSPDDVEFKSGAGTELSVRAKPS[human IgG1 Fc not printed]

binding result [3]: binds
B15: SIN-328, SIRPβ2 K68H + H101D IgV-IgG1 Fc (Fc fusion)
chain: EEELQVIQPDKSISVAAGESATLHCTVTSLIPVGPIQWFRGAGPGRELIYNQKEGHFPRVTTVSDLTHRNNMDFSIRISNITPADAGTYYCVKFRKGSPDDVEFKSGAGTELSVRAKPS[human IgG1 Fc not printed]
